According to the supplement of paper PMC10338343:
± gives the standard deviation. Only a part is listed here, and it is no random draw.

Tested on: MIWI (PIWIL1) piRISC loaded with L1MC piRNA (30 nt)
Experiment: pre-steady-state target cleavage rate (min^-1); MIWI and MILI are mouse PIWI proteins and EfPiwi is from a freshwater sponge; tags in brackets are library labels; higher = faster piRNA-guided slicing of the target
Conditions: guide: L1MC piRNA 5'p-UAACUAAAUACUAUGCAAGCUGUAGGUCCU
In short: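 Sequencing of uncleaved targets, normalised to depth and to weakly complementary targets, was the readout of this Cleave-'n-Seq assay. A transcribed, DNA-blocked target RNA library (0.1 nM) was mixed with 1 nM active affinity-purified piRISC carrying one synthetic guide, with or without 500 nM GTSF1 partner protein, in HEPES–potassium acetate buffer at 33 °C for 0–8 or 0–960 min. Three trials were pooled, k3 was capped at 0.0001 min^-1, and a burst-and-steady-state fit gave the pre-steady-state cleavage rate.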

[1] = auxiliary factor: 500 nM mouse GTSF1
[2] = auxiliary factor: none (no GTSF1)

Row | Sequence | pre-steady-state target cleavage rate [1] | pre-steady-state target cleavage rate [2]
1 | UCCUGGUACAGCUUGCAUAGUAUAAUCAAA [g8:g24:cont:t1A] | 0.131 ± 0.029 | 
2 | UGGACCUACAGCUUGCAUAGUAUAUUAGUUA |  | 0.0409 ± 0.0089
3 | UCCUGGAUCAGCUUCGUUAGUAUUUAGUUA | 0.00559 ± 0.0037 | 
4 | AGGACCUACAGCUUGCGAUAGUAUUUAGUUA | 0.108 ± 0.026 | 
5 | UCCUGCUACAGCUUCGUUAGUAUUUAGUAA | 0.0612 ± 0.014 | 
6 | UCCUGGAUGUCCUUGACAUAGUAUUUAGUUA | 0.00964 ± 0.0055 | 
7 | UCCUGCUACUGCUUGCAUAGUAUUUUCAAA | 0.194 ± 0.042 | 
8 | UCCUCCUACAGCUUGCAUAGUAUUAUGUAA | 0.142 ± 0.038 | 
9 | UCCUGGAACAGCUUGCAUAGUAAUAAGUUA | 0.0962 ± 0.016 | 
10 | UCCACCUACAGCUUGCAUUCUAUUUACAAA | 0.034 ± 0.013 | 
11 | UGGACCUACAGCUUGCAUAGUAUUAACAAA | 0.225 ± 0.032 | 
12 | UGGACCUACAGCUUUGCAUAGUAUUUAGUUA |  | 0.0449 ± 0.011
13 | UCCUGGAUGUCGAAGCAUAGUAUUUAGUUC [g2:g16:cont:t1C] | 0.00369 ± 0.0034 | 
14 | UCCUGGAUGUCCUUGCAUUGUAUUUACUUA | 0.00619 ± 0.0038 | 
15 | UCCUGGAUCUCGUUGCAUAGUAUUUAGAAA | 0.00784 ± 0.0049 | 
16 | UCCACCUACAGCUUCCAUAGUUUUUAGUUA | 0.0349 ± 0.013 | 
17 | UCCUCCUACACCUUCCAUAGUAUUUAGUUA | 0.0661 ± 0.024 | 
18 | AGGACCUACAGCUUGCAUAGUUAUUAGAAA | 0.359 ± 0.086 | 
19 | UCCUGGAUGUCGUUGUAUAGUAUUUAGUUA | 0.00797 ± 0.0026 | 
20 | UCCUGGAUGUGCAUGCAUUGUAUUUAGUUA | 0.00495 ± 0.0033 | 
21 | UCGACCUACAGCUUGGUUAGUAUUUUCAAA | 0.0241 ± 0.0089 | 
22 | UCCUGGAAGUGCUUGCAUAGUAUUUACAAA | 0.0137 ± 0.0051 | 
23 | UCCACCUACAGCUUGCAUAGUUAUUAGUAA | 0.126 ± 0.026 | 
24 | UCCUGGAUGAGCUUGCUUUGUAUUUAGUUA | 0.00719 ± 0.0033 | 
25 | AGGACCUACAGCUUGCAUAGUAUAAUCAAA | 0.414 ± 0.073 | 

Row | Sequence | pre-steady-state target cleavage rate [1] | pre-steady-state target cleavage rate [2]
26 | UGGACCUACAGCUUCGUUAGUAUUUAGUUA | 0.0729 ± 0.011 | 
27 | UCCUGGAACAGGAUGCAUAGUAUUUAGAAA | 0.0231 ± 0.0073 | 
28 | UCCUGGAACAGCUUGCAUAGUAUUUAUUA | 0.167 ± 0.033 | 
29 | UCCUCCUACUCGUUGCAUAGUAUUUAGAAA | 0.181 ± 0.03 | 
30 | UCCUGGAUGUCCUUGCUUAGUUUUUAGUUA | 0.00542 ± 0.0039 | 
31 | UCCUGGAUCAGCUUGCAUAGAUAUUUAGUUA | 0.00396 ± 0.0038 | 
32 | UCCUGGAUGUCGAUGCAUAGUAUUUACGUUA | 0.00834 ± 0.004 | 
33 | UCCUCCUACAGCUUGCAAUGUAUUUACAAA | 0.0758 ± 0.019 | 
34 | UCCUCCUACAGCUUCCAAAGUAUUUAGUUA | 0.42 ± 0.035 | 
35 | UCCUGGAACAGGUUCCAUAGUAUUUAGUUA | 0.182 ± 0.046 | 
36 | UCCUGGUACACCAUGCAUAGUAUUUAGUUA | 0.235 ± 0.034 | 
37 | UCCACCUACAGCUUGCAUAGUAUGUAGUUA | 0.231 ± 0.047 | 
38 | UGGACCUACAGCUUGCAUAGAUAUUUAGUUA | 0.0054 ± 0.003 | 
39 | UCCUGGAACAGCAACCAUAGUAUUUAGUAA | 0.00452 ± 0.0033 | 
40 | UCCUCCUACAGCUUGCUAAGUAUUUAGUAA | 0.066 ± 0.012 | 
41 | UCCUGGAACAGCUUGCAUAGUAUAAUGAAA | 0.136 ± 0.033 | 
42 | UCGACCUACAGCUUGCUAUGUAUUUACAAA | 0.00681 ± 0.0034 | 
43 | UCCUCCUACAGCUACGAUAGUAUUUAGUAA | 0.0585 ± 0.018 | 
44 | UGGACCUACACGUUGCAUAGUAUUUACAAA | 0.103 ± 0.013 | 
45 | UCCUGGAUGUGGUUGCAUAGUUUUUAGUUA |  | 0.00459 ± 0.0039
46 | UCCUGGAUGUGCUUGCCAUAGUAUUUAGUUA | 0.00557 ± 0.0046 | 
47 | AGGACCUACAGCUUGCAUAGUAAUUACAAA | 0.378 ± 0.07 | 
48 | UCCUGGAUGAGCUUGCAUAGUAUUAUCAAA [g7:g21:cont:t1A] | 0.0183 ± 0.0063 | 
49 | UCCUGGAACAGCUUGCUAGUAUUUAGUUA | 0.0142 ± 0.0056 | 
50 | UCCUGGAUCAGCUUCCAUAGAAUUUAGUUA | 0.00874 ± 0.0056 | 

Row | Sequence | pre-steady-state target cleavage rate [1] | pre-steady-state target cleavage rate [2]
51 | AGGACCUACAGCAAGCAUAGUAUUUAGAAA | 0.615 ± 0.083 | 
52 | AGGACCAUGAGCUUGCAUAGUAUUUUCAAA | 0.0495 ± 0.017 | 
53 | UCCACCUACACGAUGCAUAGUAUUUACAAA | 0.221 ± 0.044 | 
54 | UCCACCUACAGCUUGCAUACAAUUUAGUAA | 0.021 ± 0.01 | 
55 | UCCACCUACAGGUUGCAUAGUAUUUUCAAA | 0.238 ± 0.039 | 
56 | UCCUGGAUGUCGAAGCAUAGUAUCUAGUUA | 0.00506 ± 0.0033 | 
57 | UCCUGGUACAGCUUGCAUAGUAAAUAGUAA | 0.275 ± 0.056 | 
58 | UCCUGCUACAGCUUGCAUAGAUUUUAGUAA | 0.0557 ± 0.0078 | 
59 | AGGACCUACAGCUAGCAUAGUAUUUACAAA | 0.474 ± 0.071 | 
60 | UCCUGCUACAGCUUGGUAAGUAUUUAGUAA | 0.0603 ± 0.018 | 
61 | UGGACCUACAGGAAGCAUAGUAUUUUCAAA | 0.0254 ± 0.008 | 
62 | UCGACCUACAGCUUGCUAAGUAUUUUCAAA | 0.00985 ± 0.0046 | 
63 | UCGACCUACAGCAUGCAUAGUAUUUAGAAA | 0.62 ± 0.066 | 
64 | UCCACCUACUCCUUGCAUAGUAUUUACAAA | 0.261 ± 0.045 | 
65 | UCCUGGAUGUCGAUGUAUAGUAUUUAGUUA | 0.0109 ± 0.0038 | 
66 | UCCUGGAUGUCGUUGCAUAGUAUCUAGUUA | 0.0183 ± 0.0042 | 
67 | UCCUCCUACAGCUUCCAUAGUAUUUAGUAA | 0.0822 ± 0.026 | 
68 | UCCUGGAACAGCUUGCAUAGAUAUUUAGUUA | 0.00986 ± 0.0058 | 
69 | UCGACCUACAGCUUGCAUAGUUUUUUCAAA | 0.299 ± 0.059 | 
70 | UCGACCUACAGCUUGCAUUCUAUUUACAAA | 0.146 ± 0.047 | 
71 | UCCUGGAUGUCCAUGCAUAGUAUUAAGUUA | 0.00813 ± 0.0047 | 
72 | UCCUGCUACAGCUUGCAUAGUUAUUACAAA | 0.0101 ± 0.0052 | 
73 | UGGACCUACAGCUUGCAUUAGUAUUUAGUUA | 0.0108 ± 0.0044 | 
74 | UGGACCUACAGCUUCCAUAGUAUUAAGUUA | 0.00435 ± 0.0038 | 
75 | UCCUGGAUGAGGUUGCAUAGUAAUUAGUUA | 0.0134 ± 0.0044 | 

Row | Sequence | pre-steady-state target cleavage rate [1] | pre-steady-state target cleavage rate [2]
76 | UCCACCAACAGCUUGCAUAGUAUUUUCAAA | 0.37 ± 0.05 | 
77 | UCCUGGAUGAGCUUCGAUAGUAUUUAGUUA | 0.00576 ± 0.0029 | 
78 | UGGACCUACAGCAACCAUAGUAUUUAGAAA | 0.00362 ± 0.0029 | 
79 | UGGACCUACACGUUGCAUAGUAUUUUCAAA | 0.0992 ± 0.016 | 
80 | UCCUGCUACAGCUUGCAUAGUUAUUAGAAA | 0.0716 ± 0.022 | 
81 | UCCUGCUACAGCUUGCAUAGUAAAUAGAAA | 0.216 ± 0.05 | 
82 | UCGACCUACAGCUUGCAUAGAUUUUAGUAA | 0.124 ± 0.023 | 
83 | AGGACCUACAGCUUGCUUAGUAUUUUCAAA | 0.195 ± 0.035 | 
84 | AGGACCUACAGCUUGCAUUAGUAUUUAGUUA | 0.147 ± 0.044 | 
85 | UCGACCUACAGGAAGCAUAGUAUUUAGAAA | 0.181 ± 0.028 | 
86 | UCCACCUACAGCUUCGAUAGUAUUUUCAAA | 0.00864 ± 0.0049 | 
87 | UCCUGGUACAGCUUGCAUAGUAUUAUGAAA | 0.119 ± 0.037 | 
88 | UCCUGGAACACCAUGCAUAGUAUUUAGUUA | 0.212 ± 0.051 | 
89 | UCCUGGAUGUCGAUGCUUAGUAUUUUGUUA | < 0.0001 | 
90 | UCCUCCUACAGGUUCCAUAGUAUUUAGUUA | 0.165 ± 0.046 | 
91 | UCCUGGUACAGCUUCCAUAGUAUUUAGUUA | 0.00964 ± 0.0067 | 
92 | UGGACCUACAGCUUCCAUAGAAUUUAGUUA | 0.00637 ± 0.0025 | 
93 | UCCUGGUACAGCAUCCAUAGUAUUUAGUUA | 0.248 ± 0.059 | 
94 | UGGACCUACAGCUUGCAUAGUAAAAAGAAA | 0.0744 ± 0.025 | 
95 | UCCUGGAUGUCCAUGCAUAGUAAUUAGUUA | 0.00537 ± 0.0047 | 
96 | UCGACCUAGCAGCUUGCAUAGUAUUUAGUUA |  | 0.0726 ± 0.016
97 | AGGACCUACAGCUUGCAAUAGUAUUUAGUUA | 0.148 ± 0.027 | 
